In patent US11178870B2 (priority 2017, dated 2021):

How the values were obtained:
Phytophthora infestans = assay type: in vivo; conditions: Table 7, Test F
Magnaporthe grisea = assay type: in vivo; conditions: Table 7, Test A
[1] = system: Colletotrichum orbiculare; conditions: 250 ppm sprayed (2.5 ml/pot) before inoculation; assessed 6 to 10 days after inoculation

| SMILES | control value, Test F (late blight on tomato) (Phytophthora infestans) | control value, Test A (blast on rice) (Magnaporthe grisea) | control value, Test H (anthracnose on cucumber) [1] |
| --- | --- | --- | --- |
| O=c1ccc(-n2cc(Cl)cn2)c(-c2ccccc2Cl)n1CC(F)F [Compound 292] | L (L shows the control value of 50% or less) | L (L shows the control value of 50% or less) | L (L shows the control value of 50% or less) |
| CCn1c(-c2ccccc2OC)c(-n2ncc(C)c2Cl)cc(Br)c1=O [Compound 249] | L (L shows the control value of 50% or less) | L (L shows the control value of 50% or less) | L (L shows the control value of 50% or less) |
| Cc1cnn(-c2cc(Br)c(=O)n(CC(F)F)c2-c2ccc(F)cc2F)c1Cl [Compound 256] | L (L shows the control value of 50% or less) | H (H shows the control value more than 50%) | H (H shows the control value more than 50%) |
| O=c1c(Cl)cc(-n2cc(F)cn2)c(-c2ccc(F)cc2F)n1CC(F)F [Compound 285] | L (L shows the control value of 50% or less) | H (H shows the control value more than 50%) | H (H shows the control value more than 50%) |
| CCn1c(-c2c(F)cc(F)cc2F)c(-n2cc(Cl)cn2)ccc1=S [Compound 185] | L (L shows the control value of 50% or less) | L (L shows the control value of 50% or less) | L (L shows the control value of 50% or less) |
| CCn1c(-c2c(F)cccc2Br)c(-n2cc(Cl)cn2)cc(Br)c1=O [Compound 219] | L (L shows the control value of 50% or less) | L (L shows the control value of 50% or less) | L (L shows the control value of 50% or less) |
| O=c1ccc(-n2cc(F)cn2)c(-c2c(F)cc(F)cc2F)n1CC(F)F [Compound 282] | L (L shows the control value of 50% or less) | H (H shows the control value more than 50%) | H (H shows the control value more than 50%) |
| O=c1c(Br)cc(-n2cnc(Cl)c2Cl)c(-c2ccccc2Cl)n1CC(F)F [Compound 236] | L (L shows the control value of 50% or less) | H (H shows the control value more than 50%) | H (H shows the control value more than 50%) |
| O=c1c(Cl)cc(-n2cc(Cl)cn2)c(-c2ccc(F)cc2Cl)n1CC(F)F [Compound 234] | L (L shows the control value of 50% or less) | L (L shows the control value of 50% or less) | L (L shows the control value of 50% or less) |
| CCn1c(-c2ccccc2OC)c(-n2cc(Cl)cn2)ccc1=O [Compound 242] | L (L shows the control value of 50% or less) | L (L shows the control value of 50% or less) | L (L shows the control value of 50% or less) |
| CCn1c(-c2ccccc2Br)c(-n2cc(C)cn2)ccc1=O [Compound 268] | L (L shows the control value of 50% or less) | L (L shows the control value of 50% or less) | L (L shows the control value of 50% or less) |
| CCn1c(-c2ccc(F)cc2F)c(-n2cc(F)cn2)cc(Br)c1=O [Compound 252] | L (L shows the control value of 50% or less) | H (H shows the control value more than 50%) | H (H shows the control value more than 50%) |
| COc1cc(F)c(-c2c(-n3cc(Cl)cn3)cc(Br)c(=O)n2CC(F)F)c(F)c1 [Compound 222] | L (L shows the control value of 50% or less) | H (H shows the control value more than 50%) | H (H shows the control value more than 50%) |
| O=c1c(Cl)cc(-n2cc(Cl)cn2)c(-c2ccccc2Br)n1CC(F)F [Compound 290] | H (H shows the control value more than 50%) | L (L shows the control value of 50% or less) | L (L shows the control value of 50% or less) |
